Source: PubChem BioAssay AID1918935 (Molecular Pharmacology Branch, DTP, NCI, 2023)
Some entries of the source have several records that differ or are many. Only these are listed. The source may hold further records. The records of an entry repeat one measurement across runs, samples, wells, individuals or studies. Signs of the kind (2×) say how often a value occurs here.

System: 324938-238-R-J1-PDC complex spheroid viability
Assay: Anticancer human tumor 324938-238-R-J1-PDC patient-derived bladder carcinoma cell line growth inhibition
Details: stronger effect = lower value
From the text: Multicellular complex tumor spheroid response to LSD1 Inhibitor Iadademstat in combination with a variety of drugs and investigational agents in selected tumor cell lines
The current study was undertaken to assess response to LSD1 inhibitors in combination with standard-of-care drugs and investigational agents in solid tumor complex spheroid models as well as in the K-562 leukemia. Complex spheroids include a stromal component modeled by human endothelial cells (HUVEC) and fibroblasts modeled by human mesenchymal stem cells (MSCs). The concentration ranges selected for each drug and investigational agent were based upon clinically achievable concentrations if the clinical Cmax of the agent was known.
Compounds. The drugs and investigational agents used in this study are listed on Table 1. All of the agents used, including staurosporine (NSC755774) and gemcitabine (NSC613327), were obtained from the Developmental Therapeutics Program, NCI. FDA-approved anticancer drugs are available from the NCI at http://dtp.nci.nih.gov/branches/dscb/oncology_drugset_explanation.html. Drugs and investigational agents were >95% pure by proton nuclear magnetic resonance (NMR) and liquid chromatography/mass spectrometry (LC/MS). Stock solutions were prepared at 400x in DMSO, stored at -70 degrees C, and diluted in fresh medium prior to their use. The final concentration of DMSO in cell culture wells never exceeded 0.25% (v/v). The FDA-approved anticancer drug set is available from the Developmental Therapeutics Program at https://dtp.cancer.gov/organization/dscb/obtaining/available_plates.htm. All drugs and investigational agents were tested over a range starting from a high concentration at or near the clinical Cmax and decreasing in half-log increments. If the clinical Cmax for an agent had not been determined, the highest concentration tested was 10 microM.
Cell Lines. […]
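Note: spheroids also contain HUVEC and human MSCs and agents combined with iadademstat; spheroids exposed to agents for 7 days before readout.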

SMILES: NC1CC1c1ccc(-c2cccc(O)c2)cc1 (stereo not drawn)
- viability, T/C (compound alone 0.316 µM): 78.6, 83, 76, 88.1, 77.2, 84.6, 75.7, 72.9, 78.3, 68.7, 73.3, 79.6, 62.2, 70.2, 91.8, 76.1, 81.2, 78.2, 77.7, 76.4, 75.9, 76.9, 80.8, 82.6%
- viability, T/C (compound alone 1 µM): 68.2 (2×), 69.8, 78.3, 93.2, 73.8, 73.5, 64.9, 67.9, 70.3, 68.6, 67.6, 74.2, 67, 61.7, 71.6, 69.2, 72.1, 65.1, 67.4, 72.6, 70.1, 71.3, 75.3, 75.6%
- viability, T/C (compound alone 10 µM): 65, 70.8, 72.9, 77.5, 76.6, 71, 78.3, 66.3, 68, 64.7, 51, 75.5, 60.5, 66.2, 80.2, 72, 67.6, 75.9, 67, 76.5, 59.6, 64.8, 66.1, 63.8, 86.8%
